Assay results published in paper PMC4176178.
These are yes or no findings as the source states them, for the method shown. Binding seen in cells or lysates may run through a third protein. Where a sequence is shown, tags or fusion partners need not be part of it.

Biological target: T1, GST-Pdcd4 (full-length human Pdcd4 fused to GST) (human) (UniProt Q53EL6)
T1 sequence: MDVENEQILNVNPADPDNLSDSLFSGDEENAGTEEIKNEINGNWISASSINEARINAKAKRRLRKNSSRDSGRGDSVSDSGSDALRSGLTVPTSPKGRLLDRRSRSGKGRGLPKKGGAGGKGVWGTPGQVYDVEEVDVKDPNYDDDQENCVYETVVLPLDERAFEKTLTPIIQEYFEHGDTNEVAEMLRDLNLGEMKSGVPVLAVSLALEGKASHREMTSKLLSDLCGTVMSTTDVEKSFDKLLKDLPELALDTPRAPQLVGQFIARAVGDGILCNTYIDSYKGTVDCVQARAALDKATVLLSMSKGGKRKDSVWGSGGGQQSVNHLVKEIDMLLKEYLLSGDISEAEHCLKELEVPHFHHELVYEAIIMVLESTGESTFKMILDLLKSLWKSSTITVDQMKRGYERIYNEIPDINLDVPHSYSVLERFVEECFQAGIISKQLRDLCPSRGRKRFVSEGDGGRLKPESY
Assay: pull-down; GST fusion proteins on glutathione sepharose, incubated with extract of transfected cells (QT6 fibroblasts) in ELB buffer, 1 h at 4 °C; western blotting against the Myc or Flag tag; only the target purified

B1: Flag-tagged Tiar (protein, UniProt Q01085 1-375)
chain: MMEDDGQPRTLYVGNLSRDVTEVLILQLFSQIGPCKSCKMITEHTSNDPYCFVEFYEHRDAAAALAAMNGRKILGKEVKVNWATTPSSQKKDTSNHFHVFVGDLSPEITTEDIKSAFAPFGKISDARVVKDMATGKSKGYGFVSFYNKLDAENAIVHMGGQWLGGRQIRTNWATRKPPAPKSTQENNTKQLRFEDVVNQSSPKNCTVYCGGIASGLTDQLMRQTFSPFGQIMEIRVFPEKGYSFVRFSTHESAAHAIVSVNGTTIEGHVVKCYWGKESPDMTKNFQQVDYSQWGQWSQVYGNPQQYGQYMANGWQVPPYGVYGQPWNQQGFGVDQSPSAAWMGGFGAQPPQGQAPPPVIPPPNQAGYGMASYQTQ
binding: no binding
